Data published in US20140079713A1 (INSTITUT DE RECHERCHES CLINIQUES DE MONTREAL, published 2014).

Tests used:
[1] = biological target: T1, Shh; assay: column 'Shh Binding' beside the construct diagram; assay not given in the legend
T1 construct: also called Sonic hedgehog; not shown: alkaline phosphatase tag, if the probe was ShhN-AP

[2] = biological target: T2, PTCH1-GFP (mouse, UniProt Q61115 1-1434); assay: cell surface binding: conditioned medium with the Fc protein on COS7 cells expressing PTCH1-GFP, HRP-conjugated anti-Fc antibody, peroxidase activity
T2 construct: whole, on cells; also called pEGFP-mPtch1; mPtch1; not shown: GFP (EGFP) tag
T2 sequence (looked up): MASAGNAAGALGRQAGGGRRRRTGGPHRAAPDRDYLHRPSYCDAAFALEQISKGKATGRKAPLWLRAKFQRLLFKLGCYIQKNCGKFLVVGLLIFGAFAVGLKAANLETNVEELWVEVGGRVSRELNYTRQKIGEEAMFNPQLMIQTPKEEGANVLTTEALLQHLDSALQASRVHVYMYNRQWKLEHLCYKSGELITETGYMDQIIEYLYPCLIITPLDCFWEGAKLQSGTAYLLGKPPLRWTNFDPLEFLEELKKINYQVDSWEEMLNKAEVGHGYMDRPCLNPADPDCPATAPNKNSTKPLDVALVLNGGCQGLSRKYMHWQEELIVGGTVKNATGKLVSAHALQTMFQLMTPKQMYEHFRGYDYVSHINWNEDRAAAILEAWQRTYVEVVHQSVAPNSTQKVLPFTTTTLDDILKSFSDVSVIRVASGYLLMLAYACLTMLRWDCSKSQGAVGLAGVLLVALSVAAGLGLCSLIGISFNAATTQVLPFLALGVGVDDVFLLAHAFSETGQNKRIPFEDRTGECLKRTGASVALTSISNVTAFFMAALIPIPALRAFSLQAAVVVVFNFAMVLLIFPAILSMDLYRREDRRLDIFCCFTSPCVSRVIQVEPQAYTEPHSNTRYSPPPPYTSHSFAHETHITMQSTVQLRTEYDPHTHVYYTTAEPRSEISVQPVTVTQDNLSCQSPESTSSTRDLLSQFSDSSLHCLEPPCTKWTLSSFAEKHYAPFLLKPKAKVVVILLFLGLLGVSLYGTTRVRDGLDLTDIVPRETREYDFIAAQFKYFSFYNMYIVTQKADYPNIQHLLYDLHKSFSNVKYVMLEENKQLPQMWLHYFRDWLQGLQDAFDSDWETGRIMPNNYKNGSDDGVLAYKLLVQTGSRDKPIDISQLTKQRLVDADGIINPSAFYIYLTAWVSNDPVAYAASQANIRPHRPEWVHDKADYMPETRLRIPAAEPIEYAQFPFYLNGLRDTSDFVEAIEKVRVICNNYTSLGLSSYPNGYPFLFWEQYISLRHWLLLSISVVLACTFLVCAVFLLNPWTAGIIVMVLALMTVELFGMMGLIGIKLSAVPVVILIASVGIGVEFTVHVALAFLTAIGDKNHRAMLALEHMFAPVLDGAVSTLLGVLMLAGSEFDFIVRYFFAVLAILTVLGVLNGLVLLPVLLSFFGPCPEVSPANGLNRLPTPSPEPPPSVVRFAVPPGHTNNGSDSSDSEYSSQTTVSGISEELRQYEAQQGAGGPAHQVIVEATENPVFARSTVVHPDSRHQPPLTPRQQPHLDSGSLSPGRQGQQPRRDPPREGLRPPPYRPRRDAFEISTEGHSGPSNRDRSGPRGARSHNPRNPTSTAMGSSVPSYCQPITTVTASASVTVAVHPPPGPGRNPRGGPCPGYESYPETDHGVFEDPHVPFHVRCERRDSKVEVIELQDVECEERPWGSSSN
Method: FIG. 5B: BOC interacts with PTCH1 in a constitutive manner. COS7 cells expressing PTCH1-HA and BOC-Flag were treated with ShhN and subjected to anti-HA IP and either anti-Flag or anti-HA IB. FIG. 5C: The PTCH1 L2 region is not required for the BOC-PTCH1 interaction. Anti-HA IP was performed on COS7 lysates expressing Boc-Flag and PTCH1-HA or PTCH1ΔL2-followed by anti-Flag or anti-HA IB. FIG. 5D: The BOC cytoplasmic tail is not involved in the BOC-PTCH1 interaction. COS7 cells expressing PTCH1-HA and BOC-GFP or BOCΔcyto-GFP were subjected to anti-GFP IP and either anti-HA or anti-GFP IB. FIGS. 5E and F: PTCH1 forms receptor complexes with either BOC or GAS1 but not both. BOC-Flag was co-transfected with GAS1 with or without PTCH1-GFP in COS7 cells. FIG. 5E: Lysates were IP with anti-Flag antibodies, followed by anti-GAS1 or anti-GFP IB. FIG. 5F: Lysates were first immunoprecipated (IP #1) with anti-GAS1 antibodies. Supernatants from IP#1 were subjected to a second immunoprecipitation (IP #2) with anti-Flag antibodies. Both anti-GAS1 (IP #1) and anti-Flag (IP #2) immunoprecipitates were IB with anti-GAS1, anti-Flag and anti-GFP antibodies. See FIG. 11 for a schematic of this experiment. In FIGs. A to F, protein expression inputs were verified by IB with the indicated antibodies. ns, non-specific. […] Bound proteins were labeled with HRP-conjugated anti-Fc antibody and peroxidase activity measured; […]

T1 sequence (chain, as listed by the source limits assumed): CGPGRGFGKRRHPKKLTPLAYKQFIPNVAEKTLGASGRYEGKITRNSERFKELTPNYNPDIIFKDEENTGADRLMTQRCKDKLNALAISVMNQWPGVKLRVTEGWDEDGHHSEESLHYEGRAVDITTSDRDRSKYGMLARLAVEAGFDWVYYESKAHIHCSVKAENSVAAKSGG

B1: Boc IgCAM-Fc (Fc fusion)
Fc fusion chain: DLNEVPQVTVQPMSTVQKLGGTVILGCVVEPPWMNVTWRFNGKELNGSDDALGVFITRGTLVIAALNNHTVGRYQCVARMPAGAVASVPATVTLANLQDFKLDVQHVIEVDEGNTAVIACHLPESHPKAQVRYSVKQEWLEASRDNYLIMPSGNLQIVNASQEDEGMYKCAAYNPVTQEVKTSGSGDRLRVRRSTAEAARIIYPLEAQTVIVTKGQSLILECVASGIPPPRVTWAKDGSSIAAYNKTRFLLSNLLIDTTSEEDSGTYRCMASNGVGDPGAAVILYNVQVFEPPEVTVELSQLVIPWGQSAKLTCEVRGNPPPSVLWLRNAVPLTSSQRLRLSRRALRVVSVGPEDEGVYQCMAENAVGSAHAVVQLRTARPDTTLRPGSITLAAARSSMHL[human IgG1 Fc cut from this listing]
notes: also called IgCAM domains of BOC fused to Fc
binding result [1]: no binding | binding result [2]: no binding

B2: FNIIIab-Fc (Fc fusion)
chain: SVGPEDEGVYQCMAENAVGSAHAVVQLRTARPDTTLRPGRDTKPIAATPPMPPSRPSRPDQMLREQPGLVKPPTSSVQPTSLKCPGEEQVAPAEAPIILSSPRTSKTDSYELVWRPRHEGSSRTPILYYVVKHRKVTNSSDDWTISGIPANQHRLTLTRLDPGSLYEVEMAAYNCAGEGQTAMVTFRTGRRPKPEIVASKEQQIQRDDPGASLQSSSQPDHGRLSPPEAPDRPTISTASETSVYVTWIPRGNGGFPIQSFRVEYKKLKKVGDWILATSAIPPSRLSVEITGLEKGISYKFRVRALNMLGESEPSAPSRPYVVSGYSGGRKPNSADIHHTGGRSSMHL[human IgG1 Fc cut from this listing]
notes: also called BOC FNIII(ab); FNIIIab domains of BOC fused to Fc
binding result [1]: no binding
